Data taken from PubChem BioAssay AID504832 (National Center for Advancing Translational Sciences (NCATS), 2011).
In all, about 310,000 compounds went through this assay and about 18,000 (5.8%) were called active. The shares of active, inactive and inconclusive entries below differ from those in the screen. Calls follow the shape of the dose curve; as a rule, active = well fitted inhibition curve with a large enough effect; inconclusive = small, poorly fitted or top-dose-only effect, or another doubt; inactive = no such curve, though single readings can be large or run the other way. Potencies of inconclusive entries are left out as doubtful fits.

Test: Primary qHTS for delayed death inhibitors of the malarial parasite plastid, 48 hour incubation
Settings: P. falciparum luciferase growth in erythrocytes; series mostly up to 28.7 µM
Procedure, shortened: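 Firefly luciferase activity from engineered P. falciparum reports growth; inhibitors lower the luminescent signal. Cultures contained 2% hematocrit erythrocytes at 0.1% final parasitemia.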
Potency is read from the fitted curve at half-maximal effect; tags tell the direction and shape of the fitted curve.

| SMILES | Potency |
| --- | --- |
| CCc1cccc(NC(=O)COC(=O)c2cc([N+](=O)[O-])ccc2N2CCOCC2)c1 | inconclusive [inhibitor, single point] |
| COc1cnc(SCc2c(Cl)cccc2Cl)nc1Cl | inactive |
| CCOC(=O)C1(Cc2ccccc2)CCN(Cc2cn(CC(=O)OC)c3ccccc23)CC1 | inconclusive [inhibitor, single point] |
| COc1ccc(-n2cc(CNCC3CC(=O)N(C4CC4)C3)c(-c3ccccc3Cl)n2)cc1 (centres undefined) | inconclusive [inhibitor, single point] |
| O=C(C1CCCO1)N1CCN(c2c3c(nc4cc(-c5ccc(F)cc5)nn24)CCC3)CC1 (centres undefined) | inconclusive [inhibitor, single point] |
| COc1ccc(OC)c(-n2c(-c3cccc(O)c3)n[nH]c2=S)c1 | active: 0.738 µM |
| CCCNC(=O)N1[C@H]2CC[C@@H]1C(C(=O)OC)=C(c1ccc(OC(F)(F)F)cc1)C2 | inconclusive [inhibitor, partial curve] |
| Cc1ccc2sc(NNC(=O)c3cc(-c4cccs4)nc4ccccc34)nc2c1C | inconclusive [inhibitor, partial curve] |
| N#Cc1ccccc1S(=O)(=O)N1CCN(CC(O)c2ccccc2)CC1 (centres undefined) | inconclusive [inhibitor, single point] |
| CSc1ccc(S(=O)(=O)NCC(=O)OC(C)C(=O)NCc2ccccc2)cc1[N+](=O)[O-] (centres undefined) | inactive |
| COc1cccc(NC(=O)NCc2c(-c3ccccc3)noc2C)c1 | inconclusive [inhibitor, full curve] |
| CC(NC(=O)c1cc(S(=O)(=O)N2CCOCC2)ccc1N1CCCC1)c1ccc(Cl)c(Cl)c1 (centres undefined) | inconclusive [inhibitor, partial curve] |
| O=[N+]([O-])c1ccc(O)c(/C=N/n2cnc3ccccc32)c1 | inactive |
| Cn1c(NCc2ccccc2)nc2c1c(=O)n(Cc1ccccc1)c(=O)n2C | active: 7.38 µM |
| c1ccc(C2=Nn3c(nnc3-c3cc(-c4ccccc4)n[nH]3)SC2)cc1 | inconclusive [inhibitor, single point] |
| COc1ccccc1C(=O)NC(=S)Nc1ccc(N2CCOCC2)c(Cl)c1 | inconclusive [inhibitor, partial curve] |
| O=C(/C=C/NCc1cccnc1)C(F)(F)C(F)(F)F | inconclusive [inhibitor, single point] |
| c1ccc(-n2cc(CNCCc3cscn3)c(-c3ccc4c(c3)OCO4)n2)cc1 | inconclusive [inhibitor, partial curve, poor fit] |
| O=C(CC1C(=O)NCCN1CC1CCCCC1)NCCc1ccc(F)cc1 (centres undefined) | inactive |
| CC1(C)NC(=O)N(CCCC(=O)Nc2ccc(C(F)(F)F)cc2)C1=O | inactive |
| C/C(=N\NC(N)=S)C1(C)CC2(CC(C)(C)OC2=O)C(=O)O1 (centres undefined) | inconclusive [inhibitor, partial curve, poor fit] |
| CCOC(=O)CC(=O)N/N=C/c1c(N)n(C)c(=O)n(C)c1=O | inactive |
| O=C(O)c1cccc(S(=O)(=O)N2CCN(S(=O)(=O)c3ccc4ccccc4c3)CC2)c1 | inconclusive [inhibitor, single point] |

| SMILES | Potency |
| --- | --- |
| O=[N+]([O-])c1cc(-c2nnc(C34CC5CC(CC(C5)C3)C4)o2)cc([N+](=O)[O-])c1 | inconclusive [inhibitor, full curve, poor fit] |
| COCCNC(=O)c1ccccc1NS(=O)(=O)c1ccc(C)c([N+](=O)[O-])c1 | inactive |
| CCC(=O)c1ccc(OCC(=O)N(Cc2nnc(-c3ccccc3Cl)o2)C2CC2)cc1 | inconclusive [inhibitor, single point] |
| CN1CCN(CCOc2cccc(Cl)c2)CC1 | inactive |
| Cn1c(=O)c2c(nc(N3CCC(C(N)=O)CC3)n2CCSc2nc3ccccc3s2)n(C)c1=O | active: 2.94 µM |
| CC12CCC3C(CC=C4CC(O)CCC43C)C1C/C(=C\c1cccc(F)c1)C2=O (centres undefined) | inconclusive [inhibitor, single point] |
| O=C(Nc1ccccc1Cl)C1CC(=O)N(c2ccccc2)C1 (centres undefined) | inconclusive [inhibitor, full curve, poor fit] |
| Cc1nn(CCC(=O)NNC(=S)Nc2ccc(F)cc2)c(C)c1Br | inactive |
| O=C(O)c1ccccc1Sc1c([N+](=O)[O-])cc(C(F)(F)F)cc1[N+](=O)[O-] | inconclusive [inhibitor, partial curve, poor fit] |
| Cc1ccc(OCc2nc3c4c(ncn3n2)-c2ccccc2CC42CCCC2)cc1 | inconclusive [inhibitor, single point] |
| COc1ccc(CCNC(=O)COC(=O)C2CC2C)cc1OC (centres undefined) | inactive |
| COCc1cc(C)nc(N2CCCCC2)c1C#N | inactive |
| C/C(N)=C(/C#N)C(=O)CSc1nnc(Nc2cccc(C)c2C)s1 | inconclusive [inhibitor, partial curve, poor fit] |
| O=C(Nc1ccccc1)Nc1cccc(C(F)(F)F)c1 | inconclusive [inhibitor, full curve, poor fit] |
| O=C(Nc1ccc2c(c1)CCCN2C(=O)c1ccco1)c1cc([N+](=O)[O-])ccc1Cl | active: 14.7 µM |
| COc1ccc(N=c2scc(-c3ccc(S(=O)(=O)N4CCOCC4)cc3)n2CCCO)cc1 | active: 11.7 µM |
| O=C(O)CCCNc1c(C(=O)Nc2ccc(Cl)cc2)cc([N+](=O)[O-])cc1[N+](=O)[O-] | inactive |
| C=CCn1c(CCCOc2ccc(Cl)cc2Cl)nnc1SCC(=O)Nc1nccs1 | inconclusive [inhibitor, single point] |
| COc1ccc(N2CCN(C(=O)CSc3nnc(-c4ccc5[nH]c(C)c(C)c5c4)o3)CC2)cc1 | inconclusive [inhibitor, full curve, poor fit] |
| Cc1cccc(N(C(=O)c2nsc(Cl)c2Cl)C(C(=O)NC2CCCC2)c2ccc(O)cc2)c1C (centres undefined) | active: 7.38 µM |
| CCOC(=O)Cn1nc(C)c(NC(=O)c2ccc(Cl)c([N+](=O)[O-])c2)c1C | inactive |
| Fc1ccccc1C(c1nnnn1Cc1ccc2c(c1)OCO2)N1CCN(Cc2ccco2)CC1 (centres undefined) | inconclusive [inhibitor, single point] |
| Cc1ccn2c(CN(C)CCn3nc(C)cc3C)c(C(=O)N3CCCCCC3)nc2c1 | inconclusive [inhibitor, partial curve, poor fit] |

| SMILES | Potency |
| --- | --- |
| COc1ccc(C(c2sc3ncnn3c2O)N2CCN(c3ccccc3F)CC2)cc1OC (centres undefined) | inconclusive [inhibitor, single point] |
| Cc1cccc(NC(=O)C2CCN(C(=O)N3CCOc4ccccc43)CC2)c1C | inconclusive [inhibitor, partial curve, poor fit] |
| O=C(Cn1ncc2c3ccccc3n(Cc3cccc(Cl)c3)c2c1=O)N1CCC2(CC1)OCCO2 | active: 4.15 µM |
| CC1=C/C(=N\S(=O)(=O)c2ccccc2)C(C(C)C)=CC1=O | inconclusive [inhibitor, partial curve] |
| COc1cccc(OC)c1C(=O)Oc1ccc2c(c1)O/C(=C\c1ccncc1)C2=O | inconclusive [inhibitor, single point] |
| CCOC(=O)c1c(S(=O)(=O)NCc2ccc(OC)cc2)c(C)n(C)c1C | inactive |
| COc1cc(NC(=O)C2=C(N3CCOCC3)/C(=C\c3ccc(N(C)C)cc3)CCC2)cc(OC)c1OC | active: 14.7 µM |
| O=C(NCCS(=O)(=O)N1CCN(c2ccccc2)CC1)C1CC1 | inactive |
| O=C(Nc1ccc(Cl)c(Cl)c1)Nc1nccs1 | inconclusive [inhibitor, single point] |
| CC(=O)NC(Cc1ccccc1)Cc1ccccc1 | inactive |
| O=C(CCC(=O)OCC(=O)c1ccc([N+](=O)[O-])cc1)Nc1ccccc1Cl | inconclusive [inhibitor, single point] |
| CCOC(=O)C(=O)c1c(C)cc2ccccn12 | inactive |
| CNC(=O)O/N=C(\N)Cc1csc2ccccc12 | inconclusive [inhibitor, single point] |
| O=C(c1cccc(NS(=O)(=O)c2ccccc2)c1)N1CCN(c2ccccc2)CC1 | inconclusive [inhibitor, single point] |
| CCN(CC)P(=O)(Nc1ccccc1Br)c1ccc(N(C)C)cc1NC(=O)c1ccco1 (centres undefined) | inconclusive [inhibitor, partial curve] |
| Cc1cc(C)c2nc(SCC(=O)NCCN3C(=O)CSC3=O)cc(C)c2c1 | inactive |
| O=C1c2cccc3cccc(c23)C(=O)N1CC1CCN(CC(O)COCc2ccc3c(c2)OCO3)CC1 (centres undefined) | active: 9.28 µM |
| CCOC(=O)N1CCN(c2ccc(C(C)=O)cc2F)CC1 | inconclusive [inhibitor, partial curve, poor fit] |
| O=C(O)CC(CC(=O)Nc1ccc(-n2ccc(C(F)(F)F)n2)cc1)c1ccccc1 (centres undefined) | inconclusive [inhibitor, single point] |
| CC1CCCCN1C(=O)N[C@@H](Cc1ccccc1)C(=O)O (some centres undefined) | inactive |
| O=C(COC(=O)C1CCN(S(=O)(=O)c2ccccc2C(F)(F)F)CC1)NCc1ccc(F)cc1 | inactive |
| CCCCc1ccc(NC(=O)N[C@@H](CC(C)C)C(=O)O)cc1 | inactive |
| CC(=O)c1ccc(S(=O)(=O)N(C)CC(=O)NCc2ccco2)cc1 | inactive |
